Laboratory results reported in article PMC4564936.

Target: T1, Escherichia coli IscU (E. coli), P0ACD4
T1 chain: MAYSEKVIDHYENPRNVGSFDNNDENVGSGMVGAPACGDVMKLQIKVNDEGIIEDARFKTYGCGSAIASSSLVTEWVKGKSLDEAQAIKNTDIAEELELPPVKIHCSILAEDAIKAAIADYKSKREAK
Assay: SAXS; purified protein dialysed extensively (>12 h), buffer conditions as used for the NMR studies with DTT as reductant; variable temperature; molecular mass by the Vc method; monomer to dimer
Conditions: remark: other sources report otherwise

B1: Escherichia coli IscU, P0ACD4 1-128 (natural protein)
chain: T1 chain
- stoichiometry N: 2
